Experimental data from PubChem BioAssay AID1347073 (National Center for Advancing Translational Sciences (NCATS), 2019).
The whole screen tested about 45,000 compounds, of which about 200 (0.44%) were called active. Another 7% or so got no clear call; they are omitted. Calls come from the whole dose curve; as a rule, active = well fitted activation curve with a large enough effect; inconclusive = small, poorly fitted or top-dose-only effect; inactive = no such curve, though single readings can be large or run the other way. Some of the results follow.

experiment: qHTS of TDP-43 Inhibitors: NCGC Sytravon Library Screen; details: yeast TDP-43 toxicity rescue, BacTiter-Glo growth, 24 h; series mostly up to 46.1 µM; growth rescue (activation): at the top concentration; note: 0% is about no effect; nearly all actives have a fitted effect of over 55% in size
Outline: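 TDP-43-expressing yeast, pregrown in raffinose, seeded at OD600 0.02 in galactose medium with compound for 24 hr at 30 deg C. Growth read by BacTiter-Glo luminescence, so rescue of toxicity appears as activation.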

| Structure (SMILES) | growth rescue (activation) |
| --- | --- |
| CC1CN(C(=O)COC(=O)c2cc([N+](=O)[O-])ccc2Cl)CC(C)O1 (centres undefined) | inactive: 8.99% |
| CCCCOc1ccc(C2CCC(C(C)=O)C(C)C2)cc1 (centres undefined) | inactive: 5.37% |
| CC(CC(=O)O)CC(=O)Nc1cc([N+](=O)[O-])ccc1O (centres undefined) | inactive: -5.05% |
| COc1ccc2c(C)cc(SCC(=O)N3CCOCC3)nc2c1 | inactive: 43.2% |
| Cc1ccccc1-c1nnc(SCC(=O)N(C)c2ccccc2)o1 | inactive: 28.9% |
| COc1cccc(CNC(=O)CCC2CCCN(C(=O)c3ccc(C)nc3)C2)c1 (centres undefined) | inactive: 7.47% |
| NS(=O)(=O)c1ccc(CNC(=O)c2cc(-c3ccccc3)nc3ccccc23)cc1 | inactive: 20.4% |
| CC(C)c1ccc(S(=O)(=O)c2cnc(=S)[nH]c2N)cc1 | inactive: 1.93% |
| CC1CC(C)(C)NC(=S)N1CCC(=O)N1c2ccccc2CC1C (centres undefined) | inactive: 9.47% |
| CCc1ccc(NS(=O)(=O)c2ccc3[nH]cc(C(=O)N4CCc5ccccc54)c(=O)c3c2)cc1 | inactive: 4.82% |
| CCCN(CCC)C(=O)Cn1c(=O)n(CCCCCC(=O)Nc2ccccc2)c(=O)c2sccc21 | inactive: -5.71% |
| CCCC(=O)Nc1ccccc1NC(=O)c1ccc(OC(C)=O)cc1 | inactive: -5.08% |
| COc1ccccc1/C=N/NC(=O)NC12CC3CC(CC(C3)C1)C2 | inactive: 10.4% |
| CN(CC(=O)Nc1ccccc1Cl)C(=O)c1ccc(Cl)c(S(=O)(=O)N2CCCCCC2)c1 | inactive: 22.5% |
| O=C(CSc1nnc(-c2ccncc2)o1)Nc1cc(Cl)ccc1C(=O)O | inactive: -1.16% |
| Cc1cccc(CN2CCN(c3nc4nonc4nc3NC3CC3)CC2=O)c1 | inactive: 4.99% |
| O=C(Nc1ccc(S(=O)(=O)Nc2ncccn2)cc1)C12CC3CC(CC(Cl)(C3)C1)C2 | inactive: -1.39% |
| CC(C)(C)c1cc(CN2CCN(CCC#N)CC2)cc(C(C)(C)C)c1O | inactive: 11.7% |
| CCOC(=O)N1CCC(N(CCN(C)C)C(=S)Nc2cc(Cl)ccc2C)CC1 | inactive: 10.9% |
| O=C(/C=C/Nc1cccc(C(F)(F)F)c1)c1ccco1 | inactive: -11% |
| N#CC(c1ccc(=O)[nH]n1)c1ccc(Cl)cc1Cl (centres undefined) | inactive: -3.32% |
| Cc1ccc(C(=O)NCc2ccncc2)cc1S(=O)(=O)N1CCCCC1 | inactive: 13.1% |
| COc1ccc2oc(=O)c(-c3nnc(NCc4ccco4)s3)cc2c1 | inactive: 13.8% |
| COc1ccc(NC(=O)CNS(=O)(=O)c2ccc3nc(C)sc3c2)c(OC)c1 | inactive: 24.5% |
| O=C(COC(=O)/C=C/c1ccc(OC(F)F)cc1)Nc1ccc2[nH]c(=O)[nH]c2c1 | inactive: 23.6% |
| CCN(CC)S(=O)(=O)c1cccc(NC(=O)COC(=O)/C=C/c2cccs2)c1 | inactive: 13% |
| O=C(Cc1cccs1)N/N=C/c1ccccc1 | inactive: 7.2% |
| O=C(Cn1c(=O)cnc2ccccc21)Nc1cc(Cl)ccc1N1CCOCC1 | inactive: 19.5% |
| CCn1c(SCC(=O)NC2CCCC2)nnc1C(C)C | inactive: -3.54% |
